{"source": "patent US20240209078A1", "about": "(Amgen, published 2024)", "test_in_all_cases": "cell-based or functional assay", "key": {"[1]": {"molecular_target": "T1, human MSLN (mesothelin) (human, UniProt Q13421 37-598)"}, "[2]": {"molecular_target": "T2, human CDH3 (Cadherin-3, P-Cadherin) (human, UniProt P22223 108-829)"}, "[3]": {"molecular_target": "T1, human MSLN (mesothelin)", "remark": "listed apart in the source"}, "[4]": {"molecular_target": "T2, human CDH3 (Cadherin-3, P-Cadherin)", "remark": "listed apart in the source"}, "[5]": {"molecular_target": "human CD3ε chain (human, UniProt P07766)", "sequence (P07766 23-207 limits assumed)": "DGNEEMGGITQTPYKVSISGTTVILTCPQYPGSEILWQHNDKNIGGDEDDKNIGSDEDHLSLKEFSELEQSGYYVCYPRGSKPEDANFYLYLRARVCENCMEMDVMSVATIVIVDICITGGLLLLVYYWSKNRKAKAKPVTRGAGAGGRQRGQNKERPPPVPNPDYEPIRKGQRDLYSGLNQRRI"}, "[6]": {"molecular_target": "human MSLN (human, UniProt Q13421 37-598)"}, "[7]": {"molecular_target": "human CDH3 (human, UniProt P22223 108-829)"}}}
{"binder": "MS 15-B12 CC × I2M2 × (G4S)3 × scFc × (G4S)3 × CH3 15-E11 CC × I2M2 (bispecific antibody) QVQLQESGPGLVKPSETLSLTCTVSGGSISSSSYFWGWIRQPPGKCLEWIGNIYYSGSSNYNPSLKSRVTISVDTSKNQFSLKLSSVTAADTAVYYCARLPRGDRDAFDIWGQGTMVTVSSGGGGSGGGGSGGGGSDIVMTQSPSSLSASVGDRVTITCRASQGISNYLAWYQQKPGKVPKLLIYAASTLQSGVPSRFSGSGSGTDFTLTISSLQPEDFATYYCQQSYSTPFTFGCGTKVEIKSGGGGSEVQLVESGGGLVQPGGSLKLSCAASGFTFNKYAINWVREAPGKGLEWVARIRSKYNNYATYYADAVKDRFTISRDDSKNTAYLQMNNLKTEDTAVYYCVRNANFGTSYISYFAYWGQGTLVTVSSGGGGSGGGGSGGGG[sequence of about 120 residues omitted]GGGSGGGGSGGGGS[sequence of human IgG1 Fc with R292C N297G V302C (EU numbers) omitted]GGGGSGGGGSGGGGSGGGGSGGGGSGGGGS[sequence of human IgG1 Fc with R292C N297G V302C (EU numbers) omitted]GGGGSGGGGSGGGGSQVQLVQSGAEVKKPGASVKVSCKASGYTFTNYWMNWVRQAPGQCLEWMGNIAYGVKGTNYNQKFQGRVTMTVDTSSSTAYMELSRLRSDDTAVYYCATRYFYVMDYWGQGTLVTVSSGGGGSGGGGSGGGGSDIQMTQSPSSLSASVGDRVTITCRASQDISNYLNWYQQKPGKVPKLLIYYTSRLHSGVPSRFSGSGSGTDFTLTISSLQPEDVATYYCVQYAQFPLTFGCGTKVEIKSGGGGSEVQLVESGGGLVQPGGSLKLSCAASGFTFNKYAINWVREAPGKGLEWVARIRSKYNNYATYYADAVKDRFTISRDDSKNTAYLQMNNLKTEDTAVYYCVRNANFGTSYISYFAYWGQGTLVTVSSGGGGSGGGGSGGGG[sequence of about 120 residues omitted]", "values": [{"measurement": "cytotoxicity EC50, GSU KO CDH3 cells", "setting": "[1]", "result": 69.9, "unit": "pM"}, {"measurement": "cytotoxicity EC50, GSU KO MSLN cells", "setting": "[2]", "result": 7.9, "unit": "pM"}, {"measurement": "cytotoxicity EC50, HCT 116 KO CDH3 cells", "setting": "[3]", "result": 0.69, "unit": "pM"}, {"measurement": "cytotoxicity EC50, HCT 116 KO MSLN cells", "setting": "[4]", "result": 0.2, "unit": "pM"}]}
{"binder": "CH3 15-E11 CC × I2M2 × (G4S)3 × scFc × (G4S)3 × MS 15-B12 CC × I2M2 (bispecific antibody) QVQLVQSGAEVKKPGASVKVSCKASGYTFTNYWMNWVRQAPGQCLEWMGNIAYGVKGTNYNQKFQGRVTMTVDTSSSTAYMELSRLRSDDTAVYYCATRYFYVMDYWGQGTLVTVSSGGGGSGGGGSGGGGSDIQMTQSPSSLSASVGDRVTITCRASQDISNYLNWYQQKPGKVPKLLIYYTSRLHSGVPSRFSGSGSGTDFTLTISSLQPEDVATYYCVQYAQFPLTFGCGTKVEIKSGGGGSEVQLVESGGGLVQPGGSLKLSCAASGFTFNKYAINWVREAPGKGLEWVARIRSKYNNYATYYADAVKDRFTISRDDSKNTAYLQMNNLKTEDTAVYYCVRNANFGTSYISYFAYWGQGTLVTVSSGGGGSGGGGSGGGG[sequence of about 120 residues omitted]GGGSGGGGSGGGGS[sequence of human IgG1 Fc with R292C N297G V302C (EU numbers) omitted]GGGGSGGGGSGGGGSGGGGSGGGGSGGGGS[sequence of human IgG1 Fc with R292C N297G V302C (EU numbers) omitted]GGGGSGGGGSGGGGSQVQLQESGPGLVKPSETLSLTCTVSGGSISSSSYFWGWIRQPPGKCLEWIGNIYYSGSSNYNPSLKSRVTISVDTSKNQFSLKLSSVTAADTAVYYCARLPRGDRDAFDIWGQGTMVTVSSGGGGSGGGGSGGGGSDIVMTQSPSSLSASVGDRVTITCRASQGISNYLAWYQQKPGKVPKLLIYAASTLQSGVPSRFSGSGSGTDFTLTISSLQPEDFATYYCQQSYSTPFTFGCGTKVEIKSGGGGSEVQLVESGGGLVQPGGSLKLSCAASGFTFNKYAINWVREAPGKGLEWVARIRSKYNNYATYYADAVKDRFTISRDDSKNTAYLQMNNLKTEDTAVYYCVRNANFGTSYISYFAYWGQGTLVTVSSGGGGSGGGGSGGGG[sequence of about 120 residues omitted]", "values": [{"measurement": "cytotoxicity EC50, GSU KO CDH3 cells", "setting": "[1]", "result": 91.5, "unit": "pM"}, {"measurement": "cytotoxicity EC50, GSU KO MSLN cells", "setting": "[2]", "result": 136, "unit": "pM"}, {"measurement": "cytotoxicity EC50, HCT 116 KO CDH3 cells", "setting": "[3]", "result": 1.1, "unit": "pM"}, {"measurement": "cytotoxicity EC50, HCT 116 KO MSLN cells", "setting": "[4]", "result": 0.24, "unit": "pM"}]}
{"binder": "MS 15-B12 CC × I2M2 × scFc × CH3 15-E11 CC × I2L (bispecific antibody) QVQLQESGPGLVKPSETLSLTCTVSGGSISSSSYFWGWIRQPPGKCLEWIGNIYYSGSSNYNPSLKSRVTISVDTSKNQFSLKLSSVTAADTAVYYCARLPRGDRDAFDIWGQGTMVTVSSGGGGSGGGGSGGGGSDIVMTQSPSSLSASVGDRVTITCRASQGISNYLAWYQQKPGKVPKLLIYAASTLQSGVPSRFSGSGSGTDFTLTISSLQPEDFATYYCQQSYSTPFTFGCGTKVEIKSGGGGSEVQLVESGGGLVQPGGSLKLSCAASGFTFNKYAINWVREAPGKGLEWVARIRSKYNNYATYYADAVKDRFTISRDDSKNTAYLQMNNLKTEDTAVYYCVRNANFGTSYISYFAYWGQGTLVTVSSGGGGSGGGGSGGGG[sequence of about 120 residues omitted]GGGSGGGGSGGGGS[sequence of human IgG1 Fc with R292C N297G V302C (EU numbers) omitted]GGGGSGGGGSGGGGSGGGGSGGGGSGGGGS[sequence of human IgG1 Fc with R292C N297G V302C (EU numbers) omitted]GGGGSGGGGSGGGGSQVQLVQSGAEVKKPGASVKVSCKASGYTFTNYWMNWVRQAPGQCLEWMGNIAYGVKGTNYNQKFQGRVTMTVDTSSSTAYMELSRLRSDDTAVYYCATRYFYVMDYWGQGTLVTVSSGGGGSGGGGSGGGGSDIQMTQSPSSLSASVGDRVTITCRASQDISNYLNWYQQKPGKVPKLLIYYTSRLHSGVPSRFSGSGSGTDFTLTISSLQPEDVATYYCVQYAQFPLTFGCGTKVEIKSGGGGSEVQLVESGGGLVQPGGSLKLSCAASGFTFNKYAMNWVRQAPGKGMEWVARIRSKYNNYATYYADAVKDRFTISRDDSKNTLYLQMNNLKTEDTAVYYCVRAGNFGSSYISYFAYWGQGTLVTVSSGGGGSGGGGSGGGGSQTVVTQEPSLTVSPGGTVTITCGSSTGAVTSGNYPNWIQKKPGQAPRGLIGGTKFLAPGTPARFSGSLEGGKAALTLSGVQPEDEAEYYCVLYYSNRWVFGSGTKLTVL", "values": [{"measurement": "Activity reduction of single CD3 binding domain in molecule (first named: I2M2) compared to high affinity binding domain I2C", "setting": "[5]", "result": "~32", "unit": "fold"}, {"measurement": "Activity reduction of single CD3 binding domain in molecule (second named: I2L) compared to high affinity binding domain I2C", "setting": "[5]", "result": "~98", "unit": "fold"}, {"measurement": "EC50 GSU KO CDH3 (cytotoxicity; cells CDH3-, MSLN+)", "setting": "[6]", "result": 2.6, "unit": "pM"}, {"measurement": "EC50 GSU wt (cytotoxicity; cells CDH3+, MSLN+)", "setting": "[6]", "result": 0.04, "unit": "pM"}, {"measurement": "fold selectivity gap, GSU KO CDH3 against GSU wt", "setting": "[6]", "result": 58, "unit": "fold"}, {"measurement": "EC50 GSU KO MSLN (cytotoxicity; cells CDH3+, MSLN-)", "setting": "[7]", "result": 12.7, "unit": "pM"}, {"measurement": "EC50 GSU wt (cytotoxicity; cells CDH3+, MSLN+)", "setting": "[7]", "result": 0.04, "unit": "pM"}, {"measurement": "fold selectivity gap, GSU KO MSLN against GSU wt", "setting": "[7]", "result": 284, "unit": "fold"}]}
{"binder": "MS 15-B12 CC × I2L × scFc × CH3 15-E11 CC × I2M2 (bispecific antibody) QVQLQESGPGLVKPSETLSLTCTVSGGSISSSSYFWGWIRQPPGKCLEWIGNIYYSGSSNYNPSLKSRVTISVDTSKNQFSLKLSSVTAADTAVYYCARLPRGDRDAFDIWGQGTMVTVSSGGGGSGGGGSGGGGSDIVMTQSPSSLSASVGDRVTITCRASQGISNYLAWYQQKPGKVPKLLIYAASTLQSGVPSRFSGSGSGTDFTLTISSLQPEDFATYYCQQSYSTPFTFGCGTKVEIKSGGGGSEVQLVESGGGLVQPGGSLKLSCAASGFTFNKYAMNWVRQAPGKGMEWVARIRSKYNNYATYYADAVKDRFTISRDDSKNTLYLQMNNLKTEDTAVYYCVRAGNFGSSYISYFAYWGQGTLVTVSSGGGGSGGGGSGGGGSQTVVTQEPSLTVSPGGTVTITCGSSTGAVTSGNYPNWIQKKPGQAPRGLIGGTKFLAPGTPARFSGSLEGGKAALTLSGVQPEDEAEYYCVLYYSNRWVFGSGTKLTVLGGGGSGGGGSGGGGS[sequence of human IgG1 Fc with R292C N297G V302C (EU numbers) omitted]GGGGSGGGGSGGGGSGGGGSGGGGSGGGGS[sequence of human IgG1 Fc with R292C N297G V302C (EU numbers) omitted]GGGGSGGGGSGGGGSQVQLVQSGAEVKKPGASVKVSCKASGYTFTNYWMNWVRQAPGQCLEWMGNIAYGVKGTNYNQKFQGRVTMTVDTSSSTAYMELSRLRSDDTAVYYCATRYFYVMDYWGQGTLVTVSSGGGGSGGGGSGGGGSDIQMTQSPSSLSASVGDRVTITCRASQDISNYLNWYQQKPGKVPKLLIYYTSRLHSGVPSRFSGSGSGTDFTLTISSLQPEDVATYYCVQYAQFPLTFGCGTKVEIKSGGGGSEVQLVESGGGLVQPGGSLKLSCAASGFTFNKYAINWVREAPGKGLEWVARIRSKYNNYATYYADAVKDRFTISRDDSKNTAYLQMNNLKTEDTAVYYCVRNANFGTSYISYFAYWGQGTLVTVSSGGGGSGGGGSGGGG[sequence of about 120 residues omitted]", "values": [{"measurement": "Activity reduction of single CD3 binding domain in molecule (first named: I2L) compared to high affinity binding domain I2C", "setting": "[5]", "result": "~98", "unit": "fold"}, {"measurement": "Activity reduction of single CD3 binding domain in molecule (second named: I2M2) compared to high affinity binding domain I2C", "setting": "[5]", "result": "~32", "unit": "fold"}, {"measurement": "EC50 GSU KO CDH3 (cytotoxicity; cells CDH3-, MSLN+)", "setting": "[6]", "result": 6, "unit": "pM"}, {"measurement": "EC50 GSU wt (cytotoxicity; cells CDH3+, MSLN+)", "setting": "[6]", "result": 0.48, "unit": "pM"}, {"measurement": "fold selectivity gap, GSU KO CDH3 against GSU wt", "setting": "[6]", "result": 13, "unit": "fold"}, {"measurement": "EC50 GSU KO MSLN (cytotoxicity; cells CDH3+, MSLN-)", "setting": "[7]", "result": 10.6, "unit": "pM"}, {"measurement": "EC50 GSU wt (cytotoxicity; cells CDH3+, MSLN+)", "setting": "[7]", "result": 0.48, "unit": "pM"}, {"measurement": "fold selectivity gap, GSU KO MSLN against GSU wt", "setting": "[7]", "result": 22, "unit": "fold"}]}
